Test results published in the supplement of paper PMC11417369.
Some of the results follow.

Tested on: PfHDP1 homeodomain (GST-tagged)
Assay: gcPBM binding intensity (ln(normalized median fluorescence intensity)); higher = stronger DNA binding
Procedure, shortened: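 An Agilent 4 × 180k array carrying primer-extended double-stranded 36-bp intergenic genomic probes and negative controls received GST-tagged P. falciparum DNA-binding domains expressed in E. coli, about 25 μg on average, for 1 h. The binding buffer contained 1× PBS, 1% milk, 0.2 mg/ml BSA, 0.5% salmon testes DNA and 0.03% Triton X-100. Binding intensity is the top Masliner-normalised natural-log median intensity across replicate spots of either probe orientation, read after Alexa488 anti-GST antibody staining and a 488 nm scan.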

Sequence	gcPBM binding intensity (ln)
GTACAAATGATTAATCCTTTACTTATATATATATAT [XGTACX_negctrl_site138]	8.9
TTAAAAATGTGTGTGCGTACATAATATTTCGAAAAA [XGTACX_site8197]	6.95
AAATAAAATCATAATGTGCGCATATAAATTTGTAGG [GTGCAC_site9662]	8.1
AAGGTAGATATATTTAGTACGTAATTTTTTTTTTTT [XGTACX_site7288]	6.18
ATATATATATATGAAAGTACACATCTATTTTTTCTT [XGTACX_site6059]	9.08
ATTAATATGAATAAATGTACAAATGAATGATTACAT [XGTACX_site6044]	6.01
TAATATAATATATAGGTGCAATATTAACAAAAATTT	9.47
ATAATGTGTTAGGCGTGTACACAATTGTATGGTTTA [XGTACX_site2377]	7.09
GTGTATCAATATGTAGGTACGTAAATATAGATAATA [XGTACX_site5526]	6.76
TAAATATTATTTATATGTACTGATATATTAAATAAA [XGTACX_site3446]	6.14
AATTAATATTTAAATTGTACATGAACATTTTAATGT [XGTACX_site462]	6.25
AAAATAAAATTTACTTGTACTAAAGGGATACGCGCA [XGTACX_site1453]	6.44
AATATAAATTTATATTGTACATATTTTATTATATGT [XGTACX_site905]	6.37
GTCACAAAATAAATTAAACACACAACATCATATATG [CACACA_site8182]	6.77
AAAATAAGGACTGTTGTGCACTGGATTTGTGGTTAC [GTGCAC_site9830]	10
AAAAAAAAAAACAGTTGTACATTTATTTATATATTA [XGTACX_site217]	6.14
GACATAAGATAATTACACATTGTTTCCTCAATAATA [CACACA_negctrl_site1616]	6.41
TAAGTAAAAAATTAAAAAGATTACAGGGGGGGAAGG [XGTACX_negctrl_site491]	7.37
ATTTTAACGAATATATGTACATAAAAAAAAAAAAGA [XGTACX_site8750]	6.73
AATACATACAGACACACACACACATATAAATAAATA [CACACA_site7642]	7.05
GCTCATTGAAGTTATACACACCAAATATGTAAATAT [CACACA_site7217]	6.68
ACATATCTACACAGTGGTACTTCCATTAATATATAC [XGTACX_site3827]	6.72

Sequence	gcPBM binding intensity (ln)
AAAAGGGATAAATGTGCGCACATGTTATATATATAT [GTGCAC_site9534]	9.12
AACAATGTTGTACATACACACACACTAATAAAAAAT [CACACA_site8758]	6.97
TCATAAATTAAACAAACACACACGTTCTTTTATTTA [CACACA_site713]	6.22
ATTTATTCAAATGGTTGTACTACAAATAAACATTAT [XGTACX_site3378]	6.71
ATAACAAAATAAAACACACACACAAATGTACAGATA [CACACA_site5358]	6.89
TATTCATGTTTAAAAAGTACATATTATGGTAACATT [XGTACX_site4533]	6.23
ATTTTTGTGTTTACACGTACGTGTAAATTATTTTTC [XGTACX_site1869]	6.88
TCCTTTTCTTAATTTAAAAAATATAAAAAAAACGAA [CACACA_negctrl_site1821]	6.11
AGAAGCATACATCAAGCACACACACCCACACCCACA [CACACA_site8014]	6.6
ACACGTTTATATAAAAAATTAAAATTTTTCTTATTT [CACACA_negctrl_site1523]	6.52
CATAATTTACATAAAAGTACATATATATTAATGACG [XGTACX_site6247]	6.52
TTAAATAAAATTTATTGTACATAAAATTAAATATAG [XGTACX_site3039]	6.26
ATATAATATGGTATTACACACTGTTATAAGTATGGC [CACACA_site2094]	6.39
CATAAATACACTGTAGCGCACACGGCCAAAAAAAAA [CACACA_site8537]	7.06
AATATTTAAGTACTGGTGCGTGTATATAATGATTAA [GTGCAC_site9633]	7.48
ATAAATAAAATATGCACACAAATATAGGAAACAACA [CACACA_site2561]	10.1
AAACTTGTAAGAAACACACACACACGCATATAAATA [CACACA_site6518]	7.1
GTAAAAAAAGAGCACACACACAAAAACACCCACAAA [CACACA_site1292]	7.15
TTTATTCCCGCATATAGTACATATACCATTTAATGT [XGTACX_site7011]	7.07
TTTTTTCTTTTTATAACACACAGGTGAAAAATAATA [CACACA_site1850]	6.39
TTTCCTCATTTTATCATACACACTTGTTTATATGTG [CACACA_site8202]	6.65
TCCTGTTGAGAATGGCGTACATATAAATATTATATA [XGTACX_site1841]	6.32

Sequence	gcPBM binding intensity (ln)
AAATAATAAATATATCGTACAAATATCATATATAAA [XGTACX_site2771]	6.3
CAGGTTCTTATATAGTGTACTATAGACATTCAATTG [XGTACX_site7239]	6.4
TATTACTTTATATATACACACATATAACATAAATGC [CACACA_site3948]	6.81
TAAATAATAATAAAATGTACATTATATATGTATATG [XGTACX_site8672]	6.52
TTTTTTTTTTTTTTCTGTACTGATACTTATAGAGTT [XGTACX_site4736]	6.29
AAAAAAATAAATAAGACACACACAAAAAAAAAAAAA [CACACA_site8404]	6.36
TCTTGTTATAATAATCAATATATGGGTATACTTATG [CACACA_negctrl_site1618]	6.59
AAAAGGATTTTTTATACACACACTAACTAATGTATA [CACACA_site2356]	6.38
AATAAAAAATAAAAAAGTACATGATGAAAAGGTTTA [XGTACX_site7615]	6.8
TCCCTGATGTTATTTAATATACCATAAAAAAAAAAA [CACACA_negctrl_site1472]	6.11
ATCTCAAATATAATAAATTATTAGGTATATATATAT [CACACA_negctrl_site1828]	8.77
TATATATATATATATACATGCATACAATTTTATGAG [TGCATGCA_site466]	9.23
CACACTTTATAATGTTGTACGATACATTATACCAAA [XGTACX_site941]	6.45
ACCCATATTCTTTTTACACACTTGAATAAAAAATAT [CACACA_site4797]	6.67
GAGATATAAAAGTGTACACATATTGTTATCCATATT [CACACA_site5441]	6.49
ATATACTTACATATTACACACAATATTTTTAAATGG [CACACA_site5916]	6.79
TATTTATAATTAAATACACACATATATTATAGATTT [CACACA_site6435]	6.45
TTGTATATACTATACACACACATACATACATACATA [CACACA_site814]	6.93
CTTTTGCCCAAAAAGGTACACACCACAAAGTACATA [CACACA_site8169]	6.81
TTTTATTCATCATATTGTACATTCTTGTATTTATAG [XGTACX_site8534]	6.59
CCAAACAAAAAAAAAAGTACATAAAACACCTATTTG [XGTACX_site5645]	6.45
ATAATTAGGGTGTATTTCATTTCATTTCATTTTATT [CACACA_negctrl_site1418]	6.69

Sequence	gcPBM binding intensity (ln)
AATATATAAATATATACACACAAAAACATATATATA [CACACA_site1318]	6.68
TATATACAAATATGTACACACATTACAGATGTACAT [CACACA_site6586]	6.82
TAGAAAAAATAAAATAGTACACATCCAAAAAAAAAA [XGTACX_site7829]	6.45
ATAATAAATGTCTTCAATGAAGTGGAAATGCTGTTA [TGCATGCA_negctrl_site238]	6.36
ATATATACATAGAATTGTACATAATTTATGTTCATT [XGTACX_site7426]	6.16
GATATAAACGTATATGTACATATATATATATATATA [GTGCAC_negctrl_site186]	9.35
TTGGAGTTCATATGTGGTACACATTTAAATATATTT [XGTACX_site5582]	6.5
AACGTATTATTTATCTGTACAAAATAATAACGTATT [XGTACX_site813]	6.22
ATCCAAATTAATAATAGTACTTTTAAGTCCTATGTA [XGTACX_site2452]	5.77
TAAATAAAAATACAGTGTACTTTTTTCTATTTAAAA [XGTACX_site3288]	5.85
TTTTGTTTTTTCAATGTGCACTTAGGATGTTTTTAT [GTGCAC_site9565]	9.59
CAAACAAATTGTGAAACACACATATATATATATATA [CACACA_site2001]	9.39
AATGATATATTTAAATGTACACATGAAATATAATAT [XGTACX_site2678]	6.71
TATCTTCAAGTATGTACACACTATATATAATAAAAT [CACACA_site5368]	6.73
TTATATTTGATAGTTTGTACATATAATTATTATCAT [XGTACX_site5676]	6.68
ATAATTACATTCCATACACACATATATTTAAAGGTT [CACACA_site7403]	6.86
TTCTTGTTCCTGAAAGTGCATATAACAAAAATAACA [GTGCAC_site9635]	8.06
TATATAAAAATATACACACACAAATGTATATATATA [CACACA_site220]	7.45
TACATACATACATACACACACATATAGATTTATATA [CACACA_site6999]	7.43
ATATATATATATATATCACACATTAATAATATATAT [CACACA_site5081]	9.24
ATCAATCATGGTTTTACACACACATGCATGTGAAAA [CACACA_site1350]	6.78
TCTTTATTATTCGCCACACACATATAAATATAAATA [CACACA_site7441]	7.28
